# Laboratory results taken from publication PMC4336329 (PLoS ONE, 2015).
# About 14,000 (4.5%) of roughly 310,000 compounds showed an effect of 50% or more. Effects have a minus sign here. The list shows a part of the results.
# Target: human ether-à-go-go-related gene (hERG) potassium channel (human, UniProt Q12809)
# Test: primary screen, population patch clamp on CHO cells stably expressing hERG
# 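Note: peak tail current of the secondary pulse compared with the same well before compound.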
# Chain of human ether-à-go-go-related gene (hERG) potassium channel (Q12809 whole entry, looked up): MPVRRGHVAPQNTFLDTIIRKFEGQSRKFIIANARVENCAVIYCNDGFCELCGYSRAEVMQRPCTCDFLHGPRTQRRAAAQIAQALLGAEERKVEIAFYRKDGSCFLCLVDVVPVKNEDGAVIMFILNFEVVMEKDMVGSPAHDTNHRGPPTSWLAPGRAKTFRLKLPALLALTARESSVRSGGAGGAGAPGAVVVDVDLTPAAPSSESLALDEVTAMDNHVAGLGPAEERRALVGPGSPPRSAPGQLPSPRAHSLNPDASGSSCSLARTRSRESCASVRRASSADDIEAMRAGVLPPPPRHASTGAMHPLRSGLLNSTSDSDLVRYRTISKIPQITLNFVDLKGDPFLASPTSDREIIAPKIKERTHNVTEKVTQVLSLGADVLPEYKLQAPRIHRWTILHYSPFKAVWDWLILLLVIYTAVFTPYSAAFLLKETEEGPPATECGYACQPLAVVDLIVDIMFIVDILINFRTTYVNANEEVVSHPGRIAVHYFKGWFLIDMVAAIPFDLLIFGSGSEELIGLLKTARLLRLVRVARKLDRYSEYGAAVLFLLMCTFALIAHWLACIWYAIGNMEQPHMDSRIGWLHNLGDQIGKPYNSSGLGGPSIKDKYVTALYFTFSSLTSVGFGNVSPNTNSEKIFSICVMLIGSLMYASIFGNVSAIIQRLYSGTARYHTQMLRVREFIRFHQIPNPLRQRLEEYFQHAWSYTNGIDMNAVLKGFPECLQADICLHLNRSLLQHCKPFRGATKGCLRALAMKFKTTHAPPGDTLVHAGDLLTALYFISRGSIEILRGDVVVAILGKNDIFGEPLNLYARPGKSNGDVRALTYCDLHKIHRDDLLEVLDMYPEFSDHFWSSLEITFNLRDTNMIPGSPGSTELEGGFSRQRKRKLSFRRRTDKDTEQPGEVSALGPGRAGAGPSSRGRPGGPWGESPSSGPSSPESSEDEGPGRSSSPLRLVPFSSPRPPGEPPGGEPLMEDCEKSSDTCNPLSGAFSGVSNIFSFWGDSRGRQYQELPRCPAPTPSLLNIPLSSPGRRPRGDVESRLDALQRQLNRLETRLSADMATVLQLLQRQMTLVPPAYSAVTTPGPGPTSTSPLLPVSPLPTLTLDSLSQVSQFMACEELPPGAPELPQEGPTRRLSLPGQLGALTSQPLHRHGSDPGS
row,SMILES,"hERG current change (%, negative = inhibition) at 10uM"
1,O=C(c1nc2nc(-c3cccs3)cc(C(F)(F)F)n2n1)N1CCN(Cc2ccccc2)CC1,-48.3%
2,CC(c1nccs1)N(C)C(=O)CCc1nnc(Cc2c[nH]c3ccccc23)o1 (centres unmarked),11.2%
3,CCn1nc(C)cc1C(=O)N1CCCC(C(=O)c2ccc(Oc3ccccc3)cc2)C1 (centres unmarked),-9.04%
4,CC(=O)c1c(C)[nH]c(C(=O)NNC(=O)COc2ccc(Cl)cc2C)c1C,-26%
5,Cc1cc(OCCN2CCOCC2)ccc1C(C)C.Cl,15.4%
6,CC1=NN(c2ccccc2)C(=O)/C1=C/c1cn(C)c2ccccc12,1.05%
7,Nc1nc(N)c(N=Nc2ccc(SCC(=O)O)cc2)c(=O)[nH]1,14.2%
8,Cc1cnn(C(=O)c2oc3ccccc3c2C)c1,5.74%
9,COc1ccc(C2N=C(c3ccccc3)C(C)(C)N2O)cc1OC (centres unmarked),-4.44%
10,CCOC(=O)C1=C(CNCc2ccc(C)cc2)NC(=O)NC1c1cc(C)ccc1C (centres unmarked),-24.9%
11,CCCC(=O)N(c1ccc(OC)cc1)C1C=CS(=O)(=O)C1 (centres unmarked),-8.09%
12,Cc1[nH]n(-c2ccccc2)c(=O)c1/C=N/NC(=O)c1ccc(O)cc1O,13.7%
13,COC(=O)c1cc2oc3ccccc3c2n1CC(=O)N1CCCc2ccccc21,15.2%
14,NC(=O)c1cc2ccccc2o/c1=N\NC(=O)c1ccccc1O,7.9%
15,O=c1cc(NCCCO)c2ccccc2o1,2.62%
16,CCN(CC)c1ccc(/C=N/NC(=O)c2ccco2)c(O)c1,-4.31%
17,CCC(=O)Oc1ccc(C(=O)Nc2c[nH]c(=O)[nH]c2=O)cc1,4.75%
18,COc1ccc(C)cc1NC(=O)Nc1cnccn1,3.21%
19,CCn1c2ccccc2c2cc(/C=N/NC(=O)c3cccc(C)c3)ccc21,6.36%
20,O=S(=O)(c1cnc[nH]1)N1CCN(c2ccc(F)cc2)CC1,-3%
21,CCC1CCCCN1Cc1nc2ccccc2c(=O)n1CC(C)=O (centres unmarked),-9.47%
22,Cc1ccc(CN2CCN(Cc3ccccc3C(F)(F)F)CC2)cc1.O=C(O)C(=O)O,2.42%

row,SMILES,"hERG current change (%, negative = inhibition) at 10uM"
1,Cc1ccccc1-n1cc(-c2ccc(Br)cc2)nc1SCC(N)=O,-11.2%
2,Cc1cccc(OCCC(=O)Nc2c(C)n(C)n(-c3ccccc3)c2=O)c1,3.41%
3,C(=N\NCc1ccccc1)/c1ccc2ncccc2c1,4.57%
4,CCN=C1SC(CC(=O)NCCc2ccc(OC)c(OC)c2)C(=O)N1CC (centres unmarked),7.59%
5,O=C(NCc1ccco1)c1ccc2c(c1)CCO2,10.4%
6,COc1ccc(N(CC(=O)N/N=C/c2cccc(OC)c2OC)S(=O)(=O)c2ccccc2)cc1,-6.77%
7,CC(C)CC(NS(=O)(=O)c1ccccc1S(=O)(=O)NC(CC(C)C)C(=O)O)C(=O)O (centres unmarked),11.3%
8,Cn1cnc(S(=O)(=O)N2CCN(C(c3ccccc3)c3ccccc3)CC2)c1,-2.54%
9,O=C(c1cnn2c(C(F)(F)F)cc(-c3ccccc3)nc12)N1CCC2(CC1)OCCO2,-6.39%
10,O=C1NC(=O)C(c2ccccc2)(c2ccccc2)N1,1.76%
11,O=C(CC1(O)C(=O)N(Cc2ccccc2)c2ccccc21)c1ccc2c(c1)OCO2 (centres unmarked),1.08%
12,Cc1ccc(C)c(NC(=O)Cc2nc(CNCC(C)C)cs2)c1,-1.78%
13,Cc1cc2nc(C(F)(F)F)[nH]c(=O)n2n1,16.2%
14,COc1ccc(NC(=O)c2ccccc2SC)cc1,14.4%
15,CCOc1ccc(OCCCCn2ccnc2)cc1,-24.9%
16,C=CCOc1cccc(CNc2cccc(C(=O)O)c2)c1,20.7%
17,Cc1onc(-c2ccccc2)c1C(=O)Nc1ccc(Cl)c(S(=O)(=O)N2CCOCC2)c1,-9.95%
18,CSCCC(NS(=O)(=O)c1ccc2c(c1)oc(=O)n2C)C(=O)NC1CCCCC1 (centres unmarked),16.1%
19,CC(=O)Nc1ccc(N2CCOCC2)c([N+](=O)[O-])c1,-3.99%
20,CCCNC(=O)N1[C@H]2CC[C@@H]1C(C(=O)OC)=C(c1cc3ccccc3o1)C2,-7.09%
21,CCOc1ccc(CNc2ncc(-c3ccccc3)n2C)cc1,-38.9%
22,COc1ccccc1CNC(=O)c1cccc(-c2ccc(C)c3ccccc23)n1,18.9%
